Laboratory results taken from PubChem BioAssay AID1345082 (National Center for Advancing Translational Sciences (NCATS), 2018).
Where “and” joins values, the source holds several entries; their conditions need not be identical. Identical values can stand only once. About 4,000 (4.3%) of roughly 94,000 compounds were called active. The inconclusive results got no clear call from the source; some entries with a clear call stand among them for comparison. The call rests on the fitted dose curve; in most records, active means well fitted inhibition curve with a large enough effect; inconclusive means small, poorly fitted or top-dose-only effect; inactive means no such curve, though single readings can be large or run the other way. A potency beside an inconclusive call is a rough fit, not a confirmed value.
On the % scale 0 is the no-effect control and ±100 the full control effect; potency means the concentration at half of the fitted maximal effect; tags describe the fitted curve by direction and shape.

Test: Cytotoxic Profiling in NIH 3T3 Cell Line of Diverse Libraries Using Quantitative High-Throughput Screening; further: nearly all actives have a fitted effect of over 55% in size
Conditions: NIH 3T3 viability, CellTiter-Glo ATP luminescence, 48-72 h; activity change, negative = cytotoxicity: at 96.7 µM (top of the series) unless noted; series mostly up to 96.7 µM
In short: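 Cells were seeded at 400 per well, treated with pin-transferred compound, and kept 48 or 72 hr at 37 °C before CellTiter-Glo addition and luminescence imaging of cellular ATP.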
In the case of `CC(C)C(=O)Nc1ccc(C2(C(=O)NC3CC3)CCCCC2)cc1`, the Potency was “inactive”. With `O=C(NCc1cccc(F)c1)c1nc2c(o1)CCN(Cc1cccc(F)c1F)CC2` the Potency was active: 44.7 µM. For `CCc1ccc(S(=O)(=O)N2CCN(C3CCN(CCc4ccccc4)C3=O)CC2)cc1` (stereo unspecified), the Potency was inconclusive: 50.1 µM [inhibitor, partial curve, poor fit]. For `Cn1cc([C@@H](NC(=O)c2ccc3c(c2)CCCC3)C2CC(O)C2)cn1` (stereo partly specified), the Potency was inconclusive: 7.94 µM [inhibitor, full curve, poor fit]. With `COc1ccnc(-c2nnc3ccc(N4CCN(C(=O)c5ccco5)CC4)nn23)c1` the Potency was inconclusive: 56.2 µM [inhibitor, partial curve, poor fit]. For `O=C1NC2(CCN(Cc3ccccc3C(F)(F)F)C2)Oc2ccccc21` (stereo unspecified), the Potency was “inactive”. With `COc1cc(-c2nccc3c(=O)cc(N4CCOCC4)oc23)ccn1` the Potency was inconclusive: 56.2 µM [inhibitor, partial curve, poor fit]. In the case of `COc1cc(=O)n2c(c1C(=O)Nc1cccc(Cl)c1)CCCC2`, the Potency was inconclusive: 70.8 µM [inhibitor, partial curve, poor fit]. With `O=C(C1CCN([S+](=O)([O-])c2cccc(C(F)(F)F)c2)CC1)N1CCC(N2Cc3ccccc3C2=O)CC1` the Potency was inconclusive: 56.2 µM [inhibitor, partial curve, poor fit]. For `OCCOc1ccccc1CN1CCCC(Nc2ccc(F)c(F)c2)C1` (stereo unspecified), the Potency was “inactive”. For `CCc1ccc(S(=O)(=O)N2CCC(n3cnnc3-c3ccccc3)CC2)cc1`, the Potency was inconclusive: 25.1 µM [inhibitor, partial curve]. With `COc1ccc(-c2noc(CC3CCN(C(=O)Cc4ccc(C)cc4)CC3)n2)cc1` the Potency was inconclusive: 50.1 µM [inhibitor, partial curve, poor fit]. With `Cc1cc(C)c2[nH]c(C(=O)N3CCN(Cc4ccccc4)C(=O)C3C)c(C)c2c1` (stereo unspecified) the Potency was active: 25.1 µM. In the case of `COCCc1noc(-c2ccc(N(C)CCc3cnn(C)c3)nc2)n1`, the Potency was “inactive”. In the case of `Cc1oc(C(O)c2ccccc2)nc1C(=O)Nc1ccc(C(=O)Nc2ccccc2)cc1` (stereo unspecified), the Potency was active: 44.7 µM. For `C[S+](=O)([O-])N1CC2(CCCN(C3CCCCC3)C2)Cc2ccccc21` (stereo unspecified), the Potency was “inactive”. For `COCCNC(=O)c1nc2c(o1)CCN(Cc1cc(C)cc(F)c1)CC2`, the Potency was inconclusive: 100 µM [inhibitor, single point]. In the case of `COC(=O)c1cc2n(n1)CCCN(C(=O)c1cc(-c3ccccc3O)n[nH]1)C2`, the Potency was inconclusive: 50.1 µM [inhibitor, partial curve, poor fit]. For `COc1ccc(C(=O)N2CCCn3nc(C)c(-c4ccnn4C(C)C)c32)cc1`, the Potency was inconclusive: 56.2 µM [inhibitor, partial curve, poor fit]. For `O=C1CC2CCCC(C1)N2C(=O)c1ccc(C(F)(F)F)cc1`, the Potency was “inactive”. With `O=S(=O)(NC[C@H]1COCc2nc3cc(F)ccc3n21)c1ccccc1` the Potency was inconclusive: 50.1 µM [inhibitor, partial curve, poor fit]. For `COc1ccc(-c2ncc(CN3CCOC(c4cccnc4)C3)cn2)cc1` (stereo unspecified), the Potency was inconclusive: 44.7 µM [inhibitor, partial curve]. With `CCN(CC)C(=O)c1cccc2c1CCN2C(=O)Nc1cccc(C)c1` the Potency was inconclusive: 12.6 µM [inhibitor, full curve]. In the case of `COCCC(=O)N1CCC(N2C(=O)C(OC)C23CCOCC3)CC1` (stereo unspecified), the Potency was “inactive”. For `CC1CCN(C(=O)c2ccccc2OCC2CCCN(C(=O)C3CCOCC3)C2)CC1` (stereo unspecified), the Potency was inconclusive: 70.8 µM [inhibitor, partial curve, poor fit]. With `COc1cccc(-c2ccc(C(=O)N3CCC(NC(=O)c4ccccc4)CC3)cc2)c1` the Potency was inconclusive: 70.8 µM [inhibitor, partial curve, poor fit]. For `COCc1nc(C2CCCN(C(=O)Cc3ccc(OC)cc3)C2)no1` (stereo unspecified), the Potency was “inactive”. In the case of `CCC(C)NC(=O)C(NC(=O)c1ccc(C)cc1)C1CCN(C(=O)c2ccccc2C)CC1` (stereo unspecified), the Potency was “inactive”. With `O=C(c1ccc2c(c1)OCO2)N1CCCC2(CC(c3cccnc3)=NO2)C1` (stereo unspecified) the Potency was inconclusive: 50.1 µM [inhibitor, single point]. With `Cc1cc(NC(=O)c2cc3n(n2)CC(c2ccc(Cl)cc2)OC3)ccc1F` (stereo unspecified) the Potency was inconclusive: 79.4 µM [inhibitor, single point]. For `Cc1noc2c(N3CCOCC3)cc(-c3ccsc3)nc12`, the Potency was active: 28.2 µM. With `Cc1cccc(C)c1CN1CCCC12Cc1ccccc1CNC2=O` (stereo unspecified) the Potency was “inactive”. With `COCCn1cnc2ccc(-c3cccnc3OC)nc2c1=O` the Potency was inconclusive: 100 µM [inhibitor, partial curve]. For `O=c1n(-c2ccc(C(F)(F)F)cc2)nc2n1CCN(Cc1ccc(C(F)(F)F)cc1)C2`, the Potency was inconclusive: 39.8 µM [inhibitor, partial curve, poor fit] and inconclusive: 35.5 µM [inhibitor, partial curve, poor fit]. For `CCn1ccc(C(=O)Nc2ccc3ncnc(N4CCCC4)c3c2)n1`, the Potency was inconclusive: 44.7 µM [inhibitor, partial curve, poor fit]. With `CC(C)NC(=O)NCCNC(=O)c1ccc(-c2cccc(C(F)(F)F)c2)cc1` the Potency was inconclusive: 10 µM [inhibitor, partial curve, poor fit]. For `COc1ccc(CC(=O)NCCNC(=O)c2cccc(-c3ccc(C(F)(F)F)cc3)c2)cc1`, the activity change, negative = cytotoxicity was inconclusive: -30.8% [inhibitor]. For `CCC1(C(=O)Nc2ccc(C)c(F)c2)CCCCC(=O)N1` (stereo unspecified), the Potency was “inactive”. With `Cc1noc(C)c1S(=O)(=O)N1C[C@@H](F)C[C@H]1C(=O)N1CCOCC1` the Potency was inconclusive: 50.1 µM [inhibitor, partial curve, poor fit]. In the case of `O=C(C#Cc1ccccc1)NC1CCCc2c1cnn2-c1ccc(F)cc1F` (stereo unspecified), the Potency was inconclusive: 39.8 µM [inhibitor, partial curve]. In the case of `Cc1ccc(S(=O)(=O)N2CCCC(CCC(=O)N3CCc4ccccc4C3)C2)cc1` (stereo unspecified), the Potency was inconclusive: 44.7 µM [inhibitor, partial curve, poor fit]. In the case of `O=[S+]([O-])(NC1CCN(Cc2cccc(-c3cccs3)c2)CC1)c1ccccc1`, the Potency was active: 35.5 µM and active: 39.8 µM. In the case of `CC(C)NC(=O)c1nc2cccnc2n(Cc2ccccc2)c1=O`, the Potency was “inactive”. For `CC(=O)NCCNC[C@@H]1C=C(C)[C@H](Cc2nnc(-c3ccccc3)o2)C[C@H]1C(C)C`, the Potency was active: 89.1 µM. With `O=C(c1nc2sccn2c1-c1cccc(C(F)(F)F)c1)N1CCCCC1` the Potency was “inactive”. In the case of `CC(C)CN1C(=O)CCc2cc(NC(=O)c3ccc4c(c3)OCO4)ccc21`, the Potency was inconclusive: 50.1 µM [inhibitor, partial curve, poor fit]. In the case of `O=C(NC[C@H]1COCc2nc3cc(C(F)(F)F)ccc3n21)c1cnccn1`, the Potency was “inactive”. In the case of `COC(=O)[C@H]1CN(C(=O)N2CCOCC2)CCN1C(C)=O`, the Potency was “inactive”. For `Cc1ccc(-n2cccn2)c(-c2nccn2-c2ccc(C(N)=O)cc2)c1`, the Potency was “inactive”. In the case of `CCCCc1cc(C[C@H]2CNCC[C@H]2CC(=O)N(C)Cc2ccccc2)no1`, the Potency was inconclusive: 112 µM [inhibitor, partial curve, poor fit]. With `CN1CCN(c2ccc3ncc(Nc4ccc(OC(F)(F)F)cc4)n3n2)CC1` the Potency was active: 35.5 µM. With `O=C(NCc1ccc(F)cc1)c1nc(-c2cccc(C(F)(F)F)c2)c2cnccn12` the Potency was “inactive”. With `O=C(NCCc1cccs1)c1cccc2c1CCN2C(=O)Nc1ccc(F)cc1` the Potency was inconclusive: 44.7 µM [inhibitor, partial curve, poor fit]. With `Cc1ccc(-c2nocc2CCC(=O)NCc2ccc(Cl)cc2)cc1` the Potency was inconclusive: 50.1 µM [inhibitor, partial curve, poor fit]. For `O=C(c1ccc2cc[nH]c2c1)N1CCCN(c2cc(-c3ccc(Cl)cc3)[nH]n2)CC1`, the Potency was active: 39.8 µM. In the case of `Cc1cc2nc3n(c(=O)c2n1CC(=O)N1CCN(c2ccccc2)CC1)CCCCC3`, the Potency was inconclusive: 14.1 µM [inhibitor, full curve, poor fit]. In the case of `O=C(c1ccc(Cl)cc1)N1CCC(n2cc(-c3ccc(OC(F)F)cc3)[nH]c2=O)CC1`, the Potency was inconclusive: 56.2 µM [inhibitor, partial curve, poor fit]. For `COc1ccccc1CN(C(=O)c1cccc(-c2noc(C)n2)c1)C1CC1`, the Potency was “inactive”. For `CC(C)CN1CC2(CCN(C(=O)c3cc(-c4ccccc4)nn3C)CC2)CC1=O`, the Potency was inconclusive: 50.1 µM [inhibitor, partial curve, poor fit]. In the case of `O=C(Cc1c[nH]c2ncc(-c3cccc(F)c3)cc12)NCc1cccnc1`, the Potency was inconclusive: 44.7 µM [inhibitor, partial curve, poor fit]. With `O=C(c1cccs1)N1CCC(N2C(=O)C(O)C23CCCCC3)CC1` (stereo unspecified) the Potency was “inactive”. With `O=C(c1cc(F)ccc1F)N1CCC2(CC1)NC(=O)N(Cc1ccc(F)cc1)C2=O` the Potency was inconclusive: 39.8 µM [inhibitor, partial curve, poor fit]. For `Cc1nn(-c2ccc(C(C)C)cc2)c(C)c1[C@@H]1C=C[C@@H](NC(=O)NC2CCCCC2)C1`, the Potency was inconclusive: 20 µM [inhibitor, full curve, poor fit]. For `CS(=O)(=O)c1ccc(CN2CCC[C@H]2c2nc(-c3ccnc(N4CCC(C(N)=O)CC4)c3)no2)cc1`, the Potency was “inactive”. With `CCSc1ncc(CN2CCN(c3ccc4nccn4n3)CC2)cn1` the Potency was “inactive”. For `COc1ccc(NC(=O)c2ccc(CN3C(=O)NC4(CCOCC4)C3=O)cc2)cc1`, the Potency was “inactive”.
